Experimental data taken from the supplement of paper PMC11417369.
The other results are listed elsewhere or left out.

Tested on: PfAP2-HC AP2 domain (GST-tagged)
Experiment: gcPBM binding intensity (ln(normalized median fluorescence intensity)); higher = stronger DNA binding
Summary of the method: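 For binding intensity, the highest Masliner-normalised natural-log median intensity across replicate spots of either probe orientation was taken. Protein bound to the array was stained with Alexa488 anti-GST antibody and scanned at 488 nm. The protein, GST-tagged P. falciparum DNA-binding domains from E. coli at about 25 μg on average, had been applied for 1 h to an Agilent 4 × 180k array of primer-extended double-stranded 36-bp intergenic genomic probes and negative controls.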

| Sequence | gcPBM binding intensity (ln) |
| --- | --- |
| TAAAAATAATTTGCATGTACATAGGTCGATGTATTT [XGTACX_site1357] | 9.67 |
| ATTATATTTTGTAAATGTACATTTATATATTTTGTA [XGTACX_site1226] | 9.74 |
| AAAAAAAAAAAAAAAGCATGCACATATTATTTTTTT [TGCATGCA_site416] | 9.51 |
| ATTCATAAACGTGTGTTAATATGAATTTAAACATAA [XGTACX_negctrl_site213] | 9.64 |
| ATATAAATAAAATATACACACATAAATATAACGACA [CACACA_site1637] | 10 |
| ACGAAGATTTATCTTGCACACGCAAAAAAAAAAAAA [CACACA_site7933] | 9.58 |
| AACATTTCCTTTCTGTGTACATATAAACCCATCTAT [XGTACX_site2071] | 9.74 |
| TTTAAAAAAAAAAATACACACATAAAAATTTTCAAA [CACACA_site703] | 9.64 |
| TTAATAATTAATTATAGTACACATTTATATTAATAA [XGTACX_site190] | 9.48 |
| TTATTTAAAAAATTTTTAAATATACAAAAAAAAAAA [TGCATGCA_negctrl_site464] | 9.33 |
| ATTATAAGAAGGGGGGGTACATAAATATAAATGTAT [XGTACX_site5624] | 10.5 |
| TTTAATTTTCGGTGTGCACACAACTATGAGTTTTTA [CACACA_site3034] | 10.1 |
| TACTGGTATCGATATAGTACATATAATATTATGTTA [XGTACX_site7490] | 9.69 |
| AATTGAATAAATTAAACATGCACAGATGTTCTATTT [TGCATGCA_site692] | 9.64 |
| AGGATTAAAAAAACATGTACGTATTTAAATATATTT [XGTACX_site8774] | 9.75 |
| TTTTTTTTTTTTTTTTTTTTTTTTTTTTTTTTTTTT [CACACA_negctrl_site104] | 9.15 |
| GTATAAAAAAATAAAAGTACAAAAAAAAAAGACTGA [XGTACX_site186] | 9.98 |
| AAATAAAAAATATGAACACACATATATAACAAAATA [CACACA_site261] | 10.4 |
| TTACAAATGTAGAAAAGTACATATAATAATAATTTA [XGTACX_site3044] | 9.57 |
| ATGGATAATAATAAGTGTACACATATATTTAGAAGA [XGTACX_site244] | 9.97 |
| GGTAGAAAATCAGTTAAACACACACCGAAAAAAAAA [CACACA_site8934] | 10.1 |
| ATTTGTATAATAAGTTGTACAATTCTTACAATATAA [XGTACX_site4164] | 9.54 |
| TTTAAGCGTTCACTGCTGCACTTTTATGTTGTGACC | 9.59 |
| AAAAAAAAAAAAAGCACACACACATATGCGTATATA [CACACA_site953] | 10.3 |
| TAAATATAACAGAATAATATGTGGATTAATAAATGA [CACACA_negctrl_site438] | 9.68 |
